# The list shows a part of the results. The full chains were built here from the parent and the listed change. Values near 0.05 are background.
# B1: TEV protease; numbered along this chain (parent)
# chain: MGESLFKGPRDYNPISSSICHLTNESDGHTTSLYGIGFGPFIITNKHLFRRNNGTLVVQSLHGVFKVKDTTTLQQHLVDGRDMIIIRMPKDFPPFPQKLKFREPQREERICLVTTNFQTKSMSSMVSDTSCTFPSGDGIFWKHWIQTKDGQCGSPLVSTRDGFIVGIHSASNFTNTNNYFTSVPKNFMELLTNQEAQQWVSGWRLNADSVLWGGHKVFMVKPEEPFQPVKEATQL
# Variants of: B1
# Assay: raw area under fraction-flipped curve 0-4 h after induction (AUC4h, not background-subtracted), DNA-recorder readout of cleavage of the substrate (dimensionless); higher = more cleavage of the substrate by the protease variant
# Conditions: temperature: 34 °C; time window: 0-4 h after rhamnose induction
# Protocol: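 In vivo DNA recorder in E. coli TOP10(DE3) ΔrhaA at 34 °C. Each TEVp single-site mutant (parent TEVp 0) is paired with a single-site variant of the 7-mer TEVs (canonical ENLYFQ|S). The substrate sits between flexible linkers in a Bxb1-sfGFP-TEVs-SsrA fusion, so cleavage stabilises Bxb1 and speeds flipping of a recombination array, read by NGS. The value is the raw area under the fraction-flipped curve over 0-4 h after rhamnose induction (AUC4h), with ≥20 reads per time point. It is not background-subtracted; inactive controls average about 0.047.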
# 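Further: Bxb1 expression induced with 0.2% (w/v) L-rhamnose at OD600 near 0.5, cultures sampled hourly, flipped fraction per protease–substrate barcode pair counted by paired-end Illumina sequencing.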
Variant,area with substrate ENLAFQS,area with substrate ENLCFQS,area with substrate ENLDFQS,area with substrate ENLEFQS,area with substrate ENLFFQS,area with substrate ENLGFQS,area with substrate ENLHFQS,area with substrate ENLIFQS,area with substrate ENLKFQS,area with substrate ENLLFQS,area with substrate ENLNFQS,area with substrate ENLPFQS,area with substrate ENLQFQS,area with substrate ENLRFQS,area with substrate ENLSFQS,area with substrate ENLTFQS,area with substrate ENLVFQS,area with substrate ENLWFQS,area with substrate ENLMFQS
N24A,0.0556,0.0632,0.0669,0.0552,0.0739,0.0613,0.0583,0.0814,0.074,0.0653,0.0614,0.0704,0.0639,0.0728,0.0534,0.0622,0.0498,0.0611,–
N24G,0.0692,0.055,0.0684,0.0653,0.0706,–,0.0537,0.0734,0.0786,0.0666,0.0707,0.0573,0.0522,–,0.0681,0.0578,0.0622,0.0659,0.065
N24P,0.0555,0.0613,0.0623,0.0627,0.0636,0.0601,0.0596,0.061,0.0548,0.043,0.0558,0.0562,0.0649,0.049,0.066,–,–,0.0569,0.0498
N24S,0.047,–,0.0629,–,0.0675,–,0.0647,0.0648,0.0631,–,0.0721,0.0599,–,–,–,0.0807,0.0704,0.0469,–
N24V,0.0703,–,0.0695,0.062,0.0826,–,0.077,0.0789,0.0696,0.0744,0.0543,0.0529,–,0.0638,–,0.0673,0.0768,0.0598,–
E25C,0.0773,0.0795,0.0714,0.0637,0.0896,0.0461,0.077,0.0937,0.078,0.0821,0.0624,0.0457,0.0735,0.0709,0.0636,0.0677,–,0.0624,–
E25I,0.0487,0.0892,0.0624,0.0586,0.0821,0.0798,0.0633,0.0876,0.0679,–,0.06,0.0434,0.0776,0.0747,0.0677,–,0.0713,0.0626,0.0636
T31Q,0.0579,–,0.0637,–,0.0725,–,0.0809,–,–,–,0.0679,–,–,0.0635,0.0637,–,–,–,–
S32F,0.0666,–,0.0755,0.0408,0.064,0.0702,0.0665,0.0783,0.0629,0.0753,0.0576,–,0.081,0.0721,0.073,–,0.0741,–,–
S32K,0.0588,–,0.0646,0.0599,0.004,–,–,0.112,0.0841,–,0.0614,0.0461,0.0627,–,–,–,0.062,–,–
S32T,0.0657,–,0.0594,0.0535,0.0779,0.0666,0.0667,0.0879,0.0784,–,–,0.0783,0.0757,0.0659,0.0777,–,0.0855,0.0705,0.0834
S32V,0.0781,0.0735,0.0594,0.0675,0.0796,0.0605,0.0648,0.0946,0.0695,0.0771,0.0615,0.0544,0.0665,0.0765,0.0656,0.0494,–,0.0632,0.0695
L33K,0.0666,0.0358,0.0653,–,0.0703,–,0.0563,–,0.0712,0.0483,0.0497,0.0619,0.057,0.0713,0.064,–,–,0.0716,–
L33S,0.0659,0.0627,0.0723,0.0791,0.0899,0.0512,0.0677,0.0625,0.0831,0.0717,0.0688,0.0825,0.0706,0.061,0.0682,–,–,0.0741,–
G37Q,0.0468,–,0.055,–,0.0649,0.0608,0.0789,–,0.0593,–,0.0795,–,0.0572,0.0473,–,–,0.0525,0.0585,–
F38R,0.0656,0.0433,0.0572,0.0646,0.0635,0.0571,0.0572,0.0495,0.0583,0.0595,0.0495,–,0.0574,0.048,–,0.0483,0.0855,0.0562,0.049
P40M,0.0638,0.0731,0.0549,0.0636,0.0861,–,–,–,0.0786,0.0731,0.0711,0.0685,0.064,0.0721,0.0705,–,0.0481,–,0.0823
P40W,0.0604,–,0.0431,0.0526,0.0991,–,0.0673,–,0.0623,0.0595,0.0573,–,0.074,0.0719,0.0671,–,0.0971,0.0664,0.0734
I42S,0.0428,–,0.0464,0.0523,0.057,0.0491,0.056,0.0507,0.0518,0.0331,0.0516,0.0442,0.048,–,0.047,–,0.0556,0.0453,0.054
T44R,0.0559,0.0677,0.0534,–,0.0556,0.0358,0.0472,0.0509,0.0456,0.05,0.0509,0.0634,0.0617,–,0.0356,–,0.0545,–,0.0496
N45L,0.051,0.0592,0.0669,0.0561,0.0574,–,0.0553,0.0587,0.0593,0.062,0.0617,0.0572,0.0773,–,0.045,–,0.0617,0.0619,0.0615
N45W,0.06,0.0512,0.064,0.067,0.0667,0.0713,0.0568,0.0546,0.0643,0.0503,0.0589,0.0656,0.0528,0.0627,0.0639,0.0746,0.0573,0.061,0.0553
N45Y,0.0576,–,0.0613,0.0702,0.0689,0.072,0.069,0.0528,0.0701,0.0645,0.0635,0.0576,0.0509,0.0602,0.0577,0.0847,0.0703,–,0.0652

# Source: the supplement of paper PMC12217912
